{"source": "the supplement of paper PMC8728848", "experiment_in_all_cases": "glycan array binding signal (z-score within array); higher = stronger binding", "details_in_all_cases": "glycan notation: IUPAC condensed, linker removed", "key": {"[1]": {"biological_target": "Fuc(a1-2)Gal(b1-4)GlcNAc(b1-3)Gal(b1-4)GlcNAc(b1-3)Gal(b1-4)GlcNAc", "method_in_brief": "(§1)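 Glycan array data were curated from 3228 arrays in the Consortium for Functional Glycomics database and kept only where the protein sequence was available. Glycan names were converted to IUPAC-condensed notation, and columns mapping to the same glycan were averaged. The binding signal is a within-array Z-score, averaged across arrays of the same protein sequence at different concentrations or buffers and across linkers. Negative Z-scores can be read as non-binding.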"}, "[2]": {"biological_target": "Fuc(a1-2)Gal(b1-4)GlcNAc(b1-3)GalNAc", "method_in_brief": "as §1"}, "[3]": {"biological_target": "Fuc(a1-2)Gal(b1-4)GlcNAc(b1-3)[Fuc(a1-2)Gal(b1-4)GlcNAc(b1-6)]GalNAc", "method_in_brief": "as §1"}, "[4]": {"biological_target": "Fuc(a1-2)Gal(b1-4)GlcNAc(b1-3)[Fuc(a1-3)[Gal(b1-4)]GlcNAc(b1-6)]Gal(b1-4)Glc", "method_in_brief": "as §1"}, "[5]": {"biological_target": "Fuc(a1-2)Gal(b1-4)GlcNAc(b1-6)GalNAc", "method_in_brief": "as §1"}, "[6]": {"biological_target": "Fuc(a1-2)Gal(b1-4)GlcNAc6S", "method_in_brief": "as §1"}, "[7]": {"biological_target": "Fuc(a1-2)Gal(b1-4)[Fuc(a1-3)]GlcNAc", "method_in_brief": "as §1"}, "[8]": {"biological_target": "Fuc(a1-2)Gal(b1-4)[Fuc(a1-3)]GlcNAc(b1-2)Man(a1-3)[Fuc(a1-2)Gal(b1-4)[Fuc(a1-3)]GlcNAc(b1-2)Man(a1-6)]Man(b1-4)GlcNAc(b1-4)[Fuc(a1-6)]GlcNAc", "method_in_brief": "as §1"}, "[9]": {"biological_target": "Fuc(a1-2)Gal(b1-4)[Fuc(a1-3)]GlcNAc(b1-2)[Fuc(a1-2)Gal(b1-4)[Fuc(a1-3)]GlcNAc(b1-4)]Man(a1-3)[Fuc(a1-2)Gal(b1-4)[Fuc(a1-3)]GlcNAc(b1-2)Man(a1-6)]Man(b1-4)GlcNAc(b1-4)GlcNAc", "method_in_brief": "as §1"}, "[10]": {"biological_target": "Fuc(a1-2)Gal(b1-4)[Fuc(a1-3)]GlcNAc(b1-3)Gal(b1-4)[Fuc(a1-3)]GlcNAc", "method_in_brief": "as §1"}, "[11]": {"biological_target": "Fuc(a1-2)Gal(b1-4)[Fuc(a1-3)]GlcNAc(b1-3)Gal(b1-4)[Fuc(a1-3)]GlcNAc(b1-3)Gal(b1-4)[Fuc(a1-3)]GlcNAc", "method_in_brief": "as §1"}, "[12]": {"biological_target": "Fuc(a1-2)Gal(b1-4)[Fuc(a1-3)]GlcNAc(b1-3)GalNAc", "method_in_brief": "as §1"}, "[13]": {"biological_target": "Fuc(a1-2)Gal(b1-4)[Fuc(a1-3)]GlcNAc(b1-3)[Neu5Ac(a2-6)Gal(b1-4)GlcNAc(b1-6)]Gal(b1-4)Glc", "method_in_brief": "as §1"}, "[14]": {"biological_target": "Fuc(a1-2)Gal3S(b1-4)GlcNAc", "method_in_brief": "as §1"}, "[15]": {"biological_target": "Fuc(a1-2)Gal6S(b1-3)GlcNAc", "method_in_brief": "as §1"}, "[16]": {"biological_target": "Fuc(a1-2)Gal6S(b1-3)GlcNAc6S", "method_in_brief": "as §1"}, "Fuc(a1-2)Gal6S(b1-4)Glc": {"biological_target": "Fuc(a1-2)Gal6S(b1-4)Glc", "method_in_brief": "as §1"}, "[17]": {"biological_target": "Fuc(a1-2)Gal6S(b1-4)Glc6S", "method_in_brief": "as §1"}, "Fuc(a1-2)[Gal(a1-3)]Gal": {"biological_target": "Fuc(a1-2)[Gal(a1-3)]Gal", "method_in_brief": "as §1"}, "[18]": {"biological_target": "Fuc(a1-2)[Gal(a1-3)]Gal(b1-3)GalNAc", "method_in_brief": "as §1"}, "[19]": {"biological_target": "Fuc(a1-2)[Gal(a1-3)]Gal(b1-3)GalNAc(b1-3)Gal(a1-4)Gal(b1-4)Glc", "method_in_brief": "as §1"}, "[20]": {"biological_target": "Fuc(a1-2)[Gal(a1-3)]Gal(b1-3)GlcNAc", "method_in_brief": "as §1"}, "[21]": {"biological_target": "Fuc(a1-2)[Gal(a1-3)]Gal(b1-3)GlcNAc(b1-2)Man(a1-3)[Fuc(a1-2)[Gal(a1-3)]Gal(b1-3)GlcNAc(b1-2)Man(a1-6)]Man(b1-4)GlcNAc(b1-4)GlcNAc", "method_in_brief": "as §1"}, "[22]": {"biological_target": "Fuc(a1-2)[Gal(a1-3)]Gal(b1-3)GlcNAc(b1-2)Man(a1-3)[Fuc(a1-2)[Gal(a1-3)]Gal(b1-3)GlcNAc(b1-2)Man(a1-6)]Man(b1-4)GlcNAc(b1-4)[Fuc(a1-6)]GlcNAc", "method_in_brief": "as §1"}, "[23]": {"biological_target": "Fuc(a1-2)[Gal(a1-3)]Gal(b1-3)GlcNAc(b1-3)GalNAc", "method_in_brief": "as §1"}, "[24]": {"biological_target": "Fuc(a1-2)[Gal(a1-3)]Gal(b1-3)GlcNAc(b1-6)GalNAc", "method_in_brief": "as §1"}, "[25]": {"biological_target": "Fuc(a1-2)[Gal(a1-3)]Gal(b1-4)Glc", "method_in_brief": "as §1"}, "[26]": {"biological_target": "Fuc(a1-2)[Gal(a1-3)]Gal(b1-4)GlcNAc", "method_in_brief": "as §1"}, "[27]": {"biological_target": "Fuc(a1-2)[Gal(a1-3)]Gal(b1-4)GlcNAc(b1-2)Man", "method_in_brief": "as §1"}, "[28]": {"biological_target": "Fuc(a1-2)[Gal(a1-3)]Gal(b1-4)GlcNAc(b1-2)Man(a1-3)[Fuc(a1-2)[Gal(a1-3)]Gal(b1-4)GlcNAc(b1-2)Man(a1-6)]Man(b1-4)GlcNAc(b1-4)GlcNAc", "method_in_brief": "as §1"}, "[29]": {"biological_target": "Fuc(a1-2)[Gal(a1-3)]Gal(b1-4)GlcNAc(b1-2)Man(a1-3)[Fuc(a1-2)[Gal(a1-3)]Gal(b1-4)GlcNAc(b1-2)Man(a1-6)]Man(b1-4)GlcNAc(b1-4)[Fuc(a1-6)]GlcNAc", "method_in_brief": "as §1"}, "[30]": {"biological_target": "Fuc(a1-2)[Gal(a1-3)]Gal(b1-4)GlcNAc(b1-3)GalNAc", "method_in_brief": "as §1"}, "[31]": {"biological_target": "Fuc(a1-2)[Gal(a1-3)]Gal(b1-4)GlcNAc(b1-3)[Fuc(a1-2)[Gal(a1-3)]Gal(b1-4)GlcNAc(b1-6)]GalNAc", "method_in_brief": "as §1"}, "[32]": {"biological_target": "Fuc(a1-2)[Gal(a1-3)]Gal(b1-4)GlcNAc(b1-6)GalNAc", "method_in_brief": "as §1"}, "[33]": {"biological_target": "Fuc(a1-2)[Gal(a1-3)]Gal(b1-4)[Fuc(a1-3)]Glc", "method_in_brief": "as §1"}, "[34]": {"biological_target": "Fuc(a1-2)[Gal(a1-3)]Gal(b1-4)[Fuc(a1-3)]GlcNAc", "method_in_brief": "as §1"}, "[35]": {"biological_target": "Fuc(a1-2)[Gal(a1-3)]Gal(b1-4)[Fuc(a1-3)]GlcNAc(b1-3)GalNAc", "method_in_brief": "as §1"}}, "note": "Some of the results follow."}
{"binder": "Epa13 (Candida glabrata) (protein) MGSSHHHHHHSSGLVPRGSHMASDSSENGYAHGCSPSIRAKLKPGLSMEIYSYALRPTDDHCWDSAYLDPMFPRTGYLTHKLLGKAEGIIGPLNFLAKNPACIPAVSTLPLAFHFPKPFTITNFTMLLYGYLSPKKTGKYTFKLLADDLLLMNFGADNAFDCCSHDATKDNIGEYVAYSVWPGVNKNVTVYLESGIYYPLRLFFNNRDAIAQLDFAYYFNDSPIRQTDFSGMFFSIPDSVKCPANI", "values": [{"measurement": "glycan array binding signal (z-score)", "setting": "[1]", "result": -0.321}, {"measurement": "glycan array binding signal (z-score)", "setting": "[2]", "result": -0.185}, {"measurement": "glycan array binding signal (z-score)", "setting": "[3]", "result": -0.139}, {"measurement": "glycan array binding signal (z-score)", "setting": "[4]", "result": -0.523}, {"measurement": "glycan array binding signal (z-score)", "setting": "[5]", "result": -0.177}, {"measurement": "glycan array binding signal (z-score)", "setting": "[6]", "result": -0.047}, {"measurement": "glycan array binding signal (z-score)", "setting": "[7]", "result": -0.412}, {"measurement": "glycan array binding signal (z-score)", "setting": "[8]", "result": -0.019}, {"measurement": "glycan array binding signal (z-score)", "setting": "[9]", "result": 0.455}, {"measurement": "glycan array binding signal (z-score)", "setting": "[10]", "result": -0.395}, {"measurement": "glycan array binding signal (z-score)", "setting": "[11]", "result": -0.445}, {"measurement": "glycan array binding signal (z-score)", "setting": "[12]", "result": 2.14}, {"measurement": "glycan array binding signal (z-score)", "setting": "[13]", "result": -0.526}, {"measurement": "glycan array binding signal (z-score)", "setting": "[14]", "result": -0.344}, {"measurement": "glycan array binding signal (z-score)", "setting": "[15]", "result": -0.027}, {"measurement": "glycan array binding signal (z-score)", "setting": "[16]", "result": 0.747}, {"measurement": "glycan array binding signal (z-score)", "setting": "Fuc(a1-2)Gal6S(b1-4)Glc", "result": -0.561}, {"measurement": "glycan array binding signal (z-score)", "setting": "[17]", "result": -0.13}, {"measurement": "glycan array binding signal (z-score)", "setting": "Fuc(a1-2)[Gal(a1-3)]Gal", "result": -0.069}, {"measurement": "glycan array binding signal (z-score)", "setting": "[18]", "result": -0.035}, {"measurement": "glycan array binding signal (z-score)", "setting": "[19]", "result": -0.325}, {"measurement": "glycan array binding signal (z-score)", "setting": "[20]", "result": -0.328}, {"measurement": "glycan array binding signal (z-score)", "setting": "[21]", "result": -0.021}, {"measurement": "glycan array binding signal (z-score)", "setting": "[22]", "result": -0.414}, {"measurement": "glycan array binding signal (z-score)", "setting": "[23]", "result": 0.092}, {"measurement": "glycan array binding signal (z-score)", "setting": "[24]", "result": 0.078}, {"measurement": "glycan array binding signal (z-score)", "setting": "[25]", "result": -0.047}, {"measurement": "glycan array binding signal (z-score)", "setting": "[26]", "result": -0.32}, {"measurement": "glycan array binding signal (z-score)", "setting": "[27]", "result": -0.224}, {"measurement": "glycan array binding signal (z-score)", "setting": "[28]", "result": -0.007}, {"measurement": "glycan array binding signal (z-score)", "setting": "[29]", "result": -0.357}, {"measurement": "glycan array binding signal (z-score)", "setting": "[30]", "result": -0.237}, {"measurement": "glycan array binding signal (z-score)", "setting": "[31]", "result": -0.258}, {"measurement": "glycan array binding signal (z-score)", "setting": "[32]", "result": 0.058}, {"measurement": "glycan array binding signal (z-score)", "setting": "[33]", "result": -0.232}, {"measurement": "glycan array binding signal (z-score)", "setting": "[34]", "result": 0.02}, {"measurement": "glycan array binding signal (z-score)", "setting": "[35]", "result": 0.306}]}
